The text below walks through data of ChEMBL document CHEMBL4888484, “Replenishing the malaria drug discovery pipeline: Screening and hit evaluation of the MMV Hit Generation Library 1 (HGL1) against asexual blood stage Plasmodium falciparum ,using a nano luciferase reporter read-out” (2022).

About 540 (0.36%) of roughly 150,000 compounds showed an effect of 50% or more. Some of the results follow.

The test concerns Plasmodium falciparum. Put plainly: Primary screen in NF54 nanoGlo assay, in single point, at 2uM, 72h; a lower Z score goes with more inhibition. The settings on record: timepoint 72 hour. Format: functional, Erythrocyte.
Usually % Inhibition stands for the drop in the measured response relative to a control, in per cent. Turning to `COc1cc(OC)cc(-n2nnnc2CN(C)CC2CC2)c1`, the “% Inhibition” value was 4% and the Z score was -0.8.

In the case of `O=C(N[C@H]1CCCCNC1=O)c1csc2c1CCCC2`, the “% Inhibition” value is reported as 7% and the Z score was -0.89.

As for `CCOc1ccc(-c2nc(-c3cccc(-c4ccn[nH]4)c3)no2)cc1OCC`, the “% Inhibition” value is listed as -4% and the Z score turned out to be 0.48.

For `OC(CN(Cc1ccccc1)CC1CCOC1)c1ccco1` (stereo not drawn), the “% Inhibition” value is recorded as -3% and the Z score came to 0.39.

With `CN(CC(=O)N1CCC(O)CC1)Cc1ccc(Oc2ccccc2)o1`, the “% Inhibition” value was -10% and the Z score worked out at 0.89.

As for `Cc1nccc(CNC(=O)c2cc(Br)cc3[nH]cnc23)n1`, the “% Inhibition” value was -9% and the Z score is 0.85.

`CCOCC1(CNc2nc3c(s2)c(C)nn3C)CCC1`: the “% Inhibition” value was determined as 1% and the Z score is -0.14.

For `COc1ccccc1N1CCN(C(=O)c2cn3c4c(cccc4c2=O)CCC3)CC1`, the “% Inhibition” value was determined as 10% and the Z score is -1.39.

For the compound `CN(C)c1cccc(Oc2nnnn2[C@H]2CO[C@H]3[C@@H]2OC[C@@H]3NC(=O)COc2ccccc2)c1`, the “% Inhibition” value is given as -11% and the Z score is reported as 1.47.

Consider `Cc1cccc(NC(=O)c2cc(N3CCCC3)ncn2)c1C`, for which the “% Inhibition” value is 0% and the Z score came out at 0.07.

In the case of `CCCCCc1nnc(NC(=O)NC[C@H](O)c2nccn2C)s1`, the “% Inhibition” value was -1% and the Z score is 0.13.

Regarding `Cc1nc(C(=O)N2CCCCCCC2)cs1`, the “% Inhibition” value was -2% and the Z score came out at 0.37.

`CCOCCN(C)C(=O)C[C@H](C)c1ccc(F)cc1`: the “% Inhibition” value is given as -1% and the Z score was 0.14.

As for `C[C@@H](C(=O)Nc1nncs1)N(C)C/C=C/c1ccccc1`, the “% Inhibition” value turned out to be 12% and the Z score is on record as -1.59.

As for `O=C(c1ccc2c(c1)COCO2)N(CC(F)(F)F)C1CCCC1`, the “% Inhibition” value is given as -8% and the Z score is recorded as 1.06.

As to `COc1cccc(CN2CCCN(c3ccc(NC(=O)C4CCC4)cc3)C2=O)c1`, the “% Inhibition” value is reported as -8% and the Z score is recorded as 0.76.

With `CCc1nn(C)c(Cl)c1CN1CCC2(CC1)CNc1ccccc12`, the “% Inhibition” value was -2% and the Z score was 0.36.

With `OC1CCCCC1Nc1cnc2ccccc2n1` (stereo not drawn), the “% Inhibition” value was 0% and the Z score is listed as 0.01.

On to `CCc1cc(C(=O)N2C[C@H]3CC[C@@H](C2)N(Cc2c(C)noc2C)C3=O)n(C)n1`, for which the “% Inhibition” value is recorded as -11% and the Z score turned out to be 1.06.

As to `CCN1CCOC(C(=O)N2CCCC(COc3ccccc3)C2)C1` (stereo not drawn), the “% Inhibition” value is -11% and the Z score came to 1.91.

On to `O=C(NCc1ccc(N2CCOCC2)cc1)c1cn(Cc2c(F)cccc2F)nn1`, for which the “% Inhibition” value is on record as -15% and the Z score was 2.12.

On to `CCN1C(=O)CO[C@H](C(=O)N2CC(=O)Nc3ccccc3C2)[C@H]1c1cnn(C)c1`, for which the “% Inhibition” value is recorded as -24% and the Z score was determined as 2.62.

For `COc1ncccc1C(=O)N1CCC[C@@]2(C1)OC(=O)c1ccccc12`, the “% Inhibition” value is reported as -6% and the Z score is reported as 1.18.

With `Cc1nc(NC2CCC3(CC2)NC(=O)NC3=O)ccc1C#N` (stereo not drawn), the “% Inhibition” value is on record as -3% and the Z score is listed as 0.39.

As to `Brc1ccccc1COc1ccc2ccccc2n1`, the “% Inhibition” value is reported as 29% and the Z score was -3.79.

On to `Cc1ccc([C@@H]2COCCN2Cc2cccc(C(=O)O)c2Cl)o1`, for which the “% Inhibition” value is recorded as -3% and the Z score was found to be 0.55.

Regarding `Cn1cc(-c2nc3ncccc3[nH]2)c(-c2ccc(Oc3ccccc3)cc2)n1`, the “% Inhibition” value came out at 3% and the Z score is listed as -0.48.

On to `CS(=O)(=O)N(CCCC(=O)NCc1ccc2c(c1)OCO2)c1ccc(F)cc1`, for which the “% Inhibition” value was 39% and the Z score is -5.62.

In the case of `CCC(C)[C@@H](NC(=O)Nc1ccccc1C)C(=O)OC` (stereo partly drawn), the “% Inhibition” value is -5% and the Z score turned out to be 0.68.

For `COCCS(=O)(=O)NCC1CCCCC1`, the “% Inhibition” value is listed as -3% and the Z score turned out to be 0.43.

For `COc1ccc(N2Cc3nn(CC(=O)N4CCN(c5ccccc5)CC4)c(=O)n3C2=O)cc1`, the “% Inhibition” value is -11% and the Z score is 1.23.

As to `COc1cccn([C@@H](C)C(=O)N2CCCC2)c1=O`, the “% Inhibition” value was -9% and the Z score was 1.33.

Take `C=CCN1C[C@@H](C(=O)N2CCn3nc(Cc4ccccc4)cc3C2)CC1=O`: the “% Inhibition” value came to 11% and the Z score was -1.54.

For the compound `O=C(Nc1ccnn1C1CCC1)N[C@H]1C[C@H](c2ccc(F)cc2F)C1`, the “% Inhibition” value is reported as 13% and the Z score is listed as -2.43.

Consider `N#Cc1cc(OCC(F)F)nc2ccccc12`, for which the “% Inhibition” value was -5% and the Z score is reported as 0.76.

For the compound `O=C(NCCOc1ccccc1)c1cn2c(n1)[C@@H](c1ccccc1)N(CC1CC1)CC2`, the “% Inhibition” value is reported as -4% and the Z score is listed as 0.5.

Take `NC(=O)N1CCCN(CC=Cc2ccc(F)cc2)CC1`: the “% Inhibition” value was -5% and the Z score is 0.65.

Take `CCOc1ccc(S(=O)(=O)NC2(c3noc(C4CC4)n3)CCCC2)cc1`: the “% Inhibition” value is -5% and the Z score came to 0.47.

Regarding `CCCN1CCCN(C(=O)c2cccc(-n3cnnn3)c2)CC1`, the “% Inhibition” value is given as -1% and the Z score amounted to 0.14.

For the compound `CC(C)(CNC(=O)COCc1ccccc1Cl)C(N)=O`, the “% Inhibition” value is -2% and the Z score came to 0.32.

Turning to `CN(C)S(=O)(=O)c1cnn(Cc2ccnn2C)c1`, the “% Inhibition” value is on record as -1% and the Z score was found to be 0.1.

For `Cc1oc(-c2cc3c(cc2Cl)OCO3)nc1CN1C[C@@H](C)O[C@@H](C)C1`, the “% Inhibition” value is listed as -18% and the Z score turned out to be 1.94.

Consider `Cc1cc(C)nc(NC(=O)c2cccc(S(=O)(=O)N3CCCCC3)c2)n1`, for which the “% Inhibition” value is listed as -28% and the Z score worked out at 3.6.

For the compound `O[C@@H]1C[C@H]2CN(Cc3cccnc3)CC3(CN(Cc4ccc(F)cc4)C3)N2C1`, the “% Inhibition” value is recorded as 0% and the Z score was determined as 0.04.

`CC(C)Cc1cc(C(=O)N(Cc2ccc3c(c2)OCO3)C2CC2)on1`: the “% Inhibition” value was found to be 5% and the Z score is given as -0.53.

As to `O=c1[nH]nc(-c2ccc(O)cc2)n1-c1ccc2c(c1)OCO2`, the “% Inhibition” value was -1% and the Z score turned out to be 0.14.

For `O=C(NC1CCCCC1)N1CC[C@H]2C(=O)N(Cc3cccc(F)c3)CC(=O)N2CC1`, the “% Inhibition” value was -6% and the Z score was determined as 0.75.

As for `Cc1cccc(C)c1-n1nnnc1C(C)(C)N1CCN(C(=O)c2ccco2)CC1`, the “% Inhibition” value was -2% and the Z score is 0.25.

Regarding `CC(=O)Nc1ccc(-c2ccc(=O)n3c2[C@@H]2C[C@@H](CN(Cc4cccc(C#N)c4)C2)C3)cc1`, the “% Inhibition” value is 28% and the Z score is reported as -3.18.

On to `CN1CCOC(CS(=O)(=O)NC2CCCc3ccccc32)C1` (stereo not drawn), for which the “% Inhibition” value is recorded as -9% and the Z score turned out to be 1.19.

For `c1cc([C@@H]2NCCc3[nH]cnc32)n(-c2ccncc2)c1`, the “% Inhibition” value is recorded as 5% and the Z score is reported as -1.03.

Take `CS(=O)(=O)N1CC(=O)N(c2cccc(-c3ccccc3)c2)C[C@@H]1Cc1ccccc1`: the “% Inhibition” value is on record as -10% and the Z score is 1.19.

On to `CCC[C@H]1CN(Cc2cnc(N(C)C)s2)C[C@@H]1C(=O)O`, for which the “% Inhibition” value is -5% and the Z score was 0.99.

In the case of `COc1ccc(CCNC(=O)N2CCCC(C3(C)NC(=O)NC3=O)C2)cc1F` (stereo not drawn), the “% Inhibition” value is reported as -4% and the Z score is reported as 0.73.
